Values joined by “and” are separate entries in the source; they are usually repeats but may differ in a detail not shown here. Equal entries are not always repeated. The campaign covered roughly 270,000 compounds. About 5,800 (2.1%) were called active. The inconclusive results got no clear call from the source; some entries with a clear call stand among them for comparison. The call rests on the fitted dose curve; in most records, active means well fitted inhibition curve with a large enough effect; inconclusive means small, poorly fitted or top-dose-only effect; inactive means flat fitted curve, though single readings scatter. Potencies of inconclusive entries are doubtful fits and often do not repeat.
Biological target: Microtubule-associated protein tau (Homo sapiens) (UniProt P10636)
Assay: qHTS for Inhibitors of Tau Fibril Formation, Thioflavin T Binding; further: nearly all actives have a fitted effect of over 55% in size
Conditions: recombinant tau K18 P301L (four-repeat tau fragment), heparin-induced fibrillization, ThT fluorescence; series mostly up to 57.4 µM
How it was run: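 Tau K18 P301L fragment (15 uM unlabeled plus 0.24 uM Alexa 594-labeled) in 100 mM sodium acetate pH 7 with compound, fibrillization induced by 20 uM heparin for 6 hr at 37 C. Thioflavin T (30 uM) added, fluorescence read after 1 hr (ex 450, em 510 nm).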
Potency means the concentration at half of the fitted maximal effect; tags describe the fitted curve by direction and shape.

Sequence of UniProt P10636 (P10636 whole entry, looked up): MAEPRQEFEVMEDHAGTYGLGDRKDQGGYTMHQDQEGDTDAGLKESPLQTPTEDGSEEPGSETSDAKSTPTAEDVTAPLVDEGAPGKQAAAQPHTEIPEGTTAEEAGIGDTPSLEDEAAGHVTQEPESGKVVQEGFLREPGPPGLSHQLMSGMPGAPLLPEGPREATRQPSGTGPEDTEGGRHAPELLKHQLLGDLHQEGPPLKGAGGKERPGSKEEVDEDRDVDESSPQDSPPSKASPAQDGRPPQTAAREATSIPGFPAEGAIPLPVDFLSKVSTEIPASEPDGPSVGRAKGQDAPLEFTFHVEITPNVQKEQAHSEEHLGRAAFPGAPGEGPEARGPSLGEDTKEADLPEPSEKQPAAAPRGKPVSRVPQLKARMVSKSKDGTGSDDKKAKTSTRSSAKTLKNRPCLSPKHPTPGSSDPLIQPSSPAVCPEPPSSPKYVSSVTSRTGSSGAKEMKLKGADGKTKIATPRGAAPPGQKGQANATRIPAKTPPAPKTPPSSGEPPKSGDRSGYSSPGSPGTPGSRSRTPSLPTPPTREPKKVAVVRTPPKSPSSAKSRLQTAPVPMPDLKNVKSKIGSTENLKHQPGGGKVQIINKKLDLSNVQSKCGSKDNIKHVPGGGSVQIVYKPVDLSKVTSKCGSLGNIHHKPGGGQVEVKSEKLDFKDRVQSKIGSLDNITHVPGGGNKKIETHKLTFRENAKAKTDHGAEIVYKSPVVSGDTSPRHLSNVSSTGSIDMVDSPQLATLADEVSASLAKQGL

Row | SMILES | Potency
1 | CN1/C(=C\C(=O)COC(=O)C2COc3ccccc3O2)C(C)(C)c2ccccc21 (configuration not stated) | inconclusive: 12.6 µM [inhibitor, partial curve]
2 | C=C(Cl)COc1ccc2c(CC)cc(=O)oc2c1 | inconclusive: 14.1 µM [inhibitor, partial curve]
3 | Cc1ccc2nc(-c3ccccc3O)c(Nc3ccc4c(c3)OCCO4)n2c1 | inconclusive: 11.2 µM [inhibitor, partial curve]
4 | Cc1cc(N2CCN(c3ccccc3F)CC2)n2cnnc2n1 | inconclusive: 10 µM [inhibitor, partial curve]
5 | CCSc1nc2ccccc2c(=O)n1Cc1ccc(F)cc1 | inactive
6 | CC(/C=N/NC(=O)Cn1cnc2c1c(=O)n(C)c(=O)n2C)=C\c1ccco1 | inconclusive: 11.2 µM [inhibitor, partial curve]
7 | CCCCOc1ccc(NC(=O)CSc2ccc(C(=O)O)cn2)cc1 | inactive
8 | COc1ccc(NC(=O)CCc2nc3cccnc3n2Cc2cccs2)c(OC)c1 | inconclusive: 17.8 µM [inhibitor, partial curve]
9 | O=C(C1CCN(S(=O)(=O)N2CCOCC2)CC1)N1CCN(c2ccccc2)CC1 | inconclusive: 22.4 µM [inhibitor, partial curve]
10 | Oc1ccc2cc(Br)ccc2c1CN1CCCC1 | inconclusive: 8.91 µM [inhibitor, partial curve]
11 | CCOC(=O)C1C(C#N)=C(N)OC(C)=C1c1ccncc1 (configuration not stated) | inconclusive: 22.4 µM [inhibitor, partial curve]
12 | Cc1ccccc1NC(=O)COC(=O)CCc1ccccc1 | inactive
13 | COc1ccc(C(=O)Nc2cccc3cccnc23)cc1OC | inconclusive: 22.4 µM [inhibitor, partial curve]
14 | CCC(C)Cn1c(COc2ccc(OC)cc2)nc2ccccc21 (configuration not stated) | inconclusive: 28.2 µM [inhibitor, single point]
15 | CCN1C/C(=C/c2cccs2)c2nc3ccccc3c(C(=O)O)c2C1 | inconclusive: 28.2 µM [inhibitor, partial curve]
16 | CC(=O)OCC1=C(C(=O)O)N2C(=O)C(NC(=O)Cn3nc(C(F)F)c(Cl)c3C)C2SC1 (configuration not stated) | inconclusive: 31.6 µM [inhibitor, single point]
17 | O=C(NCc1cccs1)Nc1cccs1 | inconclusive: 15.8 µM [inhibitor, partial curve]
18 | O=[N+]([O-])c1ccccc1N/N=C/c1ccc2c(c1)OCO2 | inconclusive: 1 µM [inhibitor, full curve]
19 | CCN(C(=O)CCS(=O)(=O)c1ccc(Br)cc1)c1ccc2c(c1)OCO2 | inactive
20 | COc1ccc(N/N=C(\C#N)C(N)=O)cc1 | inconclusive: 14.1 µM [inhibitor, partial curve]
21 | N#Cc1c(N)nc2c(c1N)CC(=O)N2c1ccc(Cl)cc1 | inconclusive: 35.5 µM [inhibitor, single point]
22 | Cn1c2c(c(=O)n(C)c1=O)C(c1ccc(Cl)cc1)C(C#N)=C(N)O2 (configuration not stated) | inconclusive: 25.1 µM [inhibitor, partial curve]
23 | O=S(=O)(NCCc1ccc(Cl)cc1)c1ccc(N2CCCCS2(=O)=O)cc1 | inactive
24 | Cc1onc(-c2ccccc2Cl)c1C(=O)Nc1cccc(-c2cn3cccnc3n2)c1 | inconclusive: 44.7 µM [inhibitor, single point]

Row | SMILES | Potency
25 | O=C(NCc1ccccc1)c1cccc(Nc2nc3ccccc3n3nnnc23)c1 | inactive
26 | Oc1c(Br)cc(Br)cc1/C=N/NC(=S)N[C@H]1CC2C=CC1C2 (some centres not stated) | inconclusive: 2.51 µM [inhibitor, partial curve]
27 | Cc1cccc(C)c1OCC(=O)Nc1cccc(NC(=O)c2ccco2)c1 | inactive
28 | COc1ccc(C(=O)N(Cc2ccco2)Cc2cccs2)c(O)c1 | inactive
29 | O=C(NC(c1ccccc1)c1cc(Cl)c2cccnc2c1O)c1cccnc1 (configuration not stated) | inactive
30 | O=C(CCC(=O)N1CC2CCCN2c2ccccc21)NCc1ccccc1F (configuration not stated) | inactive
31 | O=C(Nc1nnc(-c2ccco2)o1)c1cccc2ccccc12 | inactive
32 | Cc1cccc(C(=O)Nc2nnc(S(=O)(=O)N3CCC(C)CC3)s2)c1 | inconclusive: 2.51 µM [inhibitor, full curve]
33 | COc1ccc(NC(=O)c2cc(=O)c3ccccc3o2)cn1 | inconclusive: 28.2 µM [inhibitor, single point]
34 | CCCCCCCCCCCCCCCCOC[C@H](COP(=O)([O-])OCC[N+](C)(C)C)OC(=O)NC | inactive
35 | Oc1ccc(/C=N/N2CCOCC2)c(O)c1O | active: 8.91 µM
36 | Cc1nc2c(C#N)c[nH]n2c(=O)c1CCO | inactive
37 | CCOC(=O)Cc1c(C)nc2c(-c3ccc(OC)c(OC)c3)c(C)nn2c1C | inactive
38 | Cc1cccc(N=N/C(=C\O)C(=O)c2cccs2)c1 | active: 28.2 µM
39 | Cc1ccc(NC(=O)/C=C\C(=O)NCC(=O)O)cc1 | inactive
40 | CC(C)Nc1ccc(C(CC(N)=O)NC(=O)Cc2ccc(Cl)cc2)cc1[N+](=O)[O-] (configuration not stated) | inconclusive: 25.1 µM [inhibitor, partial curve]
41 | COc1cc(N)c(Cl)cc1C(=O)N[C@H]1CCN(CCCOc2ccc(F)cc2)C[C@@H]1OC | inactive
42 | CC1(C)CC(=O)C2=C(C1)OC(N)=C(C#N)C2c1cn(-c2ccccc2)nc1-c1ccc(F)cc1 (configuration not stated) | inconclusive: 20 µM [inhibitor, single point]
43 | Cc1cc(C)cc(OC(=O)c2cc(-c3ccc4c(c3)OCCO4)on2)c1 | inconclusive: 17.8 µM [inhibitor, single point]
44 | CN(C)CCCN1c2ccccc2Sc2ccc(Cl)cc21 | inconclusive: 14.1 µM [inhibitor, partial curve] and inconclusive: 28.2 µM [inhibitor, single point] and inconclusive: 28.2 µM [inhibitor, partial curve]
45 | Cc1ccc(CN(C)C(=O)c2cc(COc3ccc(F)cc3Cl)on2)o1 | inconclusive: 15.8 µM [inhibitor, partial curve]
46 | COC(=O)N[C@H](c1ccccc1)C(C(C)=O)C(=O)OC (some centres not stated) | inactive
47 | Nc1nc(-c2cccs2)c(NC(=O)c2ccccc2)s1 | active: 14.1 µM
48 | COCC(=O)N/N=C/c1c(C)[nH]n(-c2ccccc2)c1=O | inconclusive: 39.8 µM [inhibitor, single point]

Row | SMILES | Potency
49 | O=C(C1CCN(S(=O)(=O)c2cccc3nonc23)CC1)N1CCN(c2ccc(F)cc2)CC1 | inactive
50 | COc1ccc(-n2nc([N+](=O)[O-])c(=NCc3cccnc3)n2O)cc1 | inconclusive: 6.31 µM [inhibitor, partial curve]
51 | O=C(c1ccc(CSCc2ccccc2F)o1)N1CCN(c2ccc(N3CCOCC3)nn2)CC1 | inconclusive: 11.2 µM [inhibitor, partial curve]
52 | NNC(=O)c1ccc(Cn2cccn2)o1 | inactive
53 | CC(C)N(C(=O)c1ccc2nc(-c3ccccc3)c(-c3ccccc3)nc2c1)C(C)C | inconclusive: 28.2 µM [inhibitor, single point]
54 | CCCOc1ccc(-c2nnn(CC(=O)OCC)n2)cc1 | inconclusive: 20 µM [inhibitor, single point]
55 | COc1ccc(NC(=O)Nc2nc3ccccc3s2)cc1 | inconclusive: 39.8 µM [activator, single point]
56 | O=C(Cn1cc(C(F)(F)F)ccc1=O)N1CCN(S(=O)(=O)c2ccccc2)CC1 | inactive
57 | O=c1cc(-c2ccccc2)n2c(SCc3ccc(Cl)cc3)nnc2[nH]1 | inconclusive: 1.26 µM [inhibitor, full curve]
58 | COc1ccc(OC)c(Nc2nc(N)nc(-c3cc4ccccc4o3)n2)c1 | inconclusive: 2.82 µM [inhibitor, full curve]
59 | CC(=O)NN1C(=O)/C(=C/c2ccc(C(C)C)cc2)SC1=S | inconclusive: 20 µM [inhibitor, partial curve]
60 | COc1ccc(CNC(=O)Cn2nnc(-c3ccc(C(F)(F)F)cc3)n2)cc1 | inactive
61 | Cc1cc(OCCCC(=O)N2CCCCC2)cc(C)c1Cl | inconclusive: 28.2 µM [inhibitor, single point]
62 | COc1cc2[nH]c(=O)n(CCCCCC(=O)NCCc3c[nH]c4ccccc34)c(=O)c2cc1OC | inconclusive: 3.55 µM [inhibitor, full curve]
63 | O=C(NCc1ccco1)c1ccc(Cn2c(SCc3ccc(F)cc3)nc3cccnc32)cc1 | inconclusive: 39.8 µM [inhibitor, single point]
64 | Cc1ccccc1CSCCNC(=O)c1ccccc1 | inactive
65 | C(=N\Nc1nc(N2CCCCCC2)nc(N2CCCCCC2)n1)/c1ccccc1 | inactive
66 | COc1cc(/C=C2\Oc3cc(O)ccc3C2=O)ccc1O | inconclusive: 2.51 µM [inhibitor, full curve]
67 | COc1ccc(N2C(=O)[C@@H]3[C@H](C2=O)[C@H](C(=O)c2ccc(OC(C)=O)cc2)N2N=CC=C[C@@H]32)cc1 | inconclusive: 28.2 µM [inhibitor, single point]
68 | Cc1cc(NC(=O)c2c(Cl)cnn2C)no1 | inactive
69 | C/C(=N\NC(=O)c1cccc(Cl)c1)c1cccc(NC(=O)C(C)C)c1 | inactive
70 | Cc1ccccc1N=Nc1c(C)[nH]n(-c2ccccc2)c1=O | inactive
71 | COc1ccc(OCCCC(=O)Nc2ncn[nH]2)cc1 | inconclusive: 0.251 µM [inhibitor, full curve, poor fit]
72 | Cc1cccc(N2CCN(C(=S)Nc3ccc4nc(N5CCN(C)CC5)cc(C)c4c3)CC2C)c1 (configuration not stated) | inconclusive: 31.6 µM [inhibitor, single point]

— PubChem BioAssay AID1460 (National Center for Advancing Translational Sciences (NCATS), 2008)
